From patent publication US9212231B2, “TRAIL R2-specific multimeric scaffolds” (MEDIMMUNE, LLC, dated 2015)

Key:
[1] = biological target: T1, TRAIL R2 expressed on the cell surface (human, UniProt O14763)
[2] = biological target: T1, TRAIL R2 expressed on the cell surface; remark: listed apart in the source
[3] = biological target: T1, TRAIL R2 expressed on the cell surface; assay: cell-based or functional assay
[4] = biological target: T1, TRAIL R2 expressed on the cell surface; assay: cell-based or functional assay; remark: listed apart in the source

B1: A9(1E11) (designed binder)
heavy: SQIEVKDVTDTTALITWAKPWVDPPPLWGCELAYGIKDVPGDRTTIDLQQKHTAYSIGNLKPDTEYEVSLICFDPYGAKSNPAKETFTTGGGTPTSSASTKGPSVFPLAPSSKSTSGGTAALGCLVKDYFPEPVTVSWNSGALTSGVHTFPAVLQSSGLYSLSSVVTVPSSSLGTQTYICNVNHKPSNTKVDKRV[omitted - human IgG1 Fc]
light: SQIEVKDVTDTTALITWAKPWVDPPPLWGCELAYGIKDVPGDRTTIDLQQKHTAYSIGNLKPDTEYEVSLICFDPYGAKSNPAKETFTTGGGTPTRTVAAPSVFIFPPSDEQLKSGTASVVCLLNNFYPREAKVQWKVDNALQSGNSQESVTEQDSKDSTYSLSSTLTLSKADYEKHKVYACEVTHQGLSSPVTKSFNRGEC
Binder B1 has an EC50, killing of H2122 cells [1] of 1.98 nM, a Maximum Inhibition %, H2122 cells [1] of 80% and a fold potency in inhibiting H2122 cell viability [2] of 150 fold.

B2: A7(1E11) (Fc fusion)
chain: AMASGGGGSAIEVKDVTDTTALITWAKPWVDPPPLWGCELAYGIKDVPGDRTTIDLQQKHTAYSIGNLKPDTEYEVSLICFDPYGAKSNPAKETFTTGGGGSGGGGSGGGGSAIEVKDVTDTTALITWAKPWVDPPPLWGCELAYGIKDVPGDRTTIDLQQKHTAYSIGNLKPDTEYEVSLICFDPYGAKSNPAKETFTTGGGGSGGGGSGTGA[omitted - human IgG1 Fc]
B2 was tested, and the “EC50, killing of H2122 cells” value [3] was 0.02 nM.

B3: A8(1E11) (Fc fusion)
chain: AMASGGGGSAIEVKDVTDTTALITWAKPWVDPPPLWGCELAYGIKDVPGDRTTIDLQQKHTAYSIGNLKPDTEYEVSLICFDPYGAKSNPAKETFTTGGGGSGGGGSGGGGSAIEVKDVTDTTALITWAKPWVDPPPLWGCELAYGIKDVPGDRTTIDLQQKHTAYSIGNLKPDTEYEVSLICFDPYGAKSNPAKETFTTGGGGSGGGGSGGGGSAIEVKDVTDTTALITWAKPWVDPPPLWGCELAYGIKDVPGDRTTIDLQQKHTAYSIGNLKPDTEYEVSLICFDPYGAKSNPAKETFTTGGGGSGGGGSGGGGSAIEVKDVTDTTALITWAKPWVDPPPLWGCELAYGIKDVPGDRTTIDLQQKHTAYSIGNLKPDTEYEVSLICFDPYGAKSNPAKETFTTGGGGSGGGGSGTGA[omitted - human IgG1 Fc]
For B3, the “EC50, killing of H2122 cells” value [4] was 0.0002 nM.

Like-named read-outs stand apart in the source and are kept apart here.
